Measurements published in the RNAGym collection of RNA variant scans (doi:10.1073/pnas.2313332121).
Variants at the floor of the assay are shown more often than the library holds them.

B1: TPR 5TU (parent)
chain: GGAUCUUCUCGAUCUAACAAAAAAGACAAAUCUGCCACAAAGCUUGAGAGCAUCUUCGGAUGCAGAGGCGGCAGCCUUCGGUGGCGCGAUAGCGCCAACGUUCUCAACUAUGACACGCAAAACGCGUGCUCCGUUGAAUGGAGUUUAUCAUG

Variants of: B1
Assay: polymerase ribozyme fitness, log enrichment relative to wild type (log ratio); higher = more active; in vitro selection for triplet polymerase activity
How it was run: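 Fitness compares each genotype's enrichment to that of the wild type on a logarithmic scale, averaging replicates with inverse-variance weights. The logarithm is base 2. Enrichment came from Illumina sequencing of input and output libraries after one triplicate round of in vitro selection, which included frozen incubation at −7 °C, of PCR-built, transcribed mutant libraries of each subunit of a heterodimeric triplet polymerase ribozyme. Only genotypes with ≥10 input reads and ≥1 read per output were kept.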

GGAUCUUCUCGAUCUAACAAAAAAGACAAAUCUACCACAAAGCUUGAGAGCUUCUACGGAUGCAGAGGCGGCAGCCUUCGGUGGCGCGAUAGCACCAACGUUCUCAACUAUGACACGCAAAACGCGUGCUCCGUUGAAUGGAGUUUAUCAUG [G34A A52U U56A G94A] and GGAUCUUCUCGAUCUAACAAAAAAGACAAAUCUACCACAAAGCUUGAGAGCAUCUUCGGGUGCAGAGGCGGCAGCCUUCGGUGGCGCGAUAGCACCAACGUUCUCAACUAUGACACGCAAAACGCGUGCUCCGUUGAAUGGAGUUUGUCCUG [G34A A60G G94A A147G A150C] cannot be ordered by “polymerase ribozyme fitness (log ratio)” value: ≤ -4.2 for the first, ≤ -4.2 for the second.

GGAUCUUCUCGAUCUAACAAAAAAGACAAAUCUACCACAAAGCUUGAGAGCAUCUUCGGGUGCAGAGGCGGCAGCCUUCGGUGGCGCGAUAGCGCCAACGUUCUCAACUAUGACACGCAAAACGCGUGCUCCGUUGAAUUGAGUUUAUUAUG [G34A A60G G140U C149U] and GGAUCUUCUCGAUCUAACAAAAAAGACAAAUCUACCACAAAGCUUGAGAGCAUCUUCGGAUGCAGUGGCGGCAGUCUUCGGUGGCGCGAUAGCGCCAACGUUCUCAACUAUGACACGCAAAACGCGUGCUCCGUUGGAUGGAGUUUAUCAUG [G34A A66U C75U A137G] cannot be ordered by “polymerase ribozyme fitness (log ratio)” value: ≤ -4.2 for the first, ≤ -4.2 for the second.

Going from GGAUCUUCUCGAUCUAACAAAAAAGACAAAUCUACCACAAAGCUUGAGAGCAUCUUCGGAUGCAGAGGCGGCAGCCUUCGGUGGCGCGAUCGCGCCAACGUUUUCAACUAUGACACGCAAAACGCGUGCUCCGUUGAAGAGAGUAUACCAUG [G34A A91C C103U U139G G140A U145A U148C] to GGAUCUUCUCGAUCUAACAAAAAAGACAAAUCUACCACAAAGCUUGAGAGCAUCUUCGGAUGCAGAGGCGGCAGCCUUCGGUGGCGCGAUAGCGCCAACGUUCUCAACUAUGACACGCACAACGCGUGCUCCGUUGAAUGGAGUUUAUCAUG [G34A A120C], the “polymerase ribozyme fitness (log ratio)” value rises from ≤ -4.2 to 0.113.

GGAUCUUCUCGAUCUAACAAAAAAGACAAAUCUAACACAAAGCUUGAGAGCAUCUUCGGAUGCAGAGGCGGCAGCCUUCGGUCGCGCGAUAGCGCCAACGUUCUCUACUAUGACACGCAAAACGCGUGCUCCUUUGGAUGUAGUUUAUCAUG [G34A C35A G83C A106U G133U A137G G141U] and GGAUCUUCUCGAUCUAACAAAAAAGACAAAUCUAACACAAAGCUUGAGAGCAUCAUCGGAUGCAGAGAAGGCAGCCUUCGGUGGCGCGAUAGCGCGAACGUUCUCAACUAUGACACACAAAACGCGUUCUCCGUUGAAUGGAGUUUAUCAUG [G34A C35A U55A G68A C69A C96G G117A G128U] cannot be ordered by “polymerase ribozyme fitness (log ratio)” value: ≤ -4.2 for the first, ≤ -4.2 for the second.

GGAUCUUCUCGAUCUAACAAAAAAGACAAAUCUAACACAAAGCUUGAGAGCAUCUGCGGAUGCAGAGGCGUCAGCCUUCUGUAGCGCGAUAGCGCCAUCGUUCUCAACUAUGACACGCAAAACGCGUGCUCCGUUGAAUGGAGUUUAUCAUG [G34A C35A U56G G71U G80U G83A A98U] and GGAUCUUCUCGAUCUAACAAAAAAGACAAAUCUACCACAAAGCUUGAGAGCAUGUUCGGAUGCAGAGGCGGCAGCCUUCGGUGGCACGAUAGCGCCAACGUUCUCAGCUAUGACACGCAAAACGCGUGCUCCGUUGUAUGGCGUUUAUCAUG [G34A C54G G86A A107G A137U A142C] cannot be ordered by “polymerase ribozyme fitness (log ratio)” value: ≤ -4.2 for the first, ≤ -4.2 for the second.

GGAUCUUCUCGAUCUAACAAAAAAGACAAAUCUACCACAAAGCUUGAGAGCAUCUUCGGAUGCAGAGGCGGCAGCUGUCGGUGGCGCGAUAGCGCCAACGUUCUCAACUAGGACACGCAAAACGCGUGCUCCGUUGAAUGGAGUUUAUCAUG [G34A C76U U77G U111G] and GGAUCUUCUCGAUCUAACAAAAAAGACAAAUCUACCACAAAGCUUGAGAGCAUCUUCGGAUGCAGAGGCGGCAGCCUUGGGUGGCGCGAUAGCACCAACGUUCUUAACUAUGACACGCAAAACGCGUGCUCCGUUGAAUGGAGUUUAUCAUG [G34A C79G G94A C105U] cannot be ordered by “polymerase ribozyme fitness (log ratio)” value: ≤ -4.2 for the first, ≤ -4.2 for the second.

GGAUCUUCUCGAUCUAACAAAAAAGACAAAUCUACCACAAAGCUUGAGAGCAUCUUCGGAUGCAGAGGCGGCAGCCUUUGGUGGCGCGAUAGCGCCAACGUUCUCAACUAUGACACGCAAAACGCGGGCUCCGUUGGAUGCAGUUUAUCAUG [G34A C79U U127G A137G G141C] and GGAUCUUCUCGAUCUAACAAAAAAGACAAAUCUACCACAAAGCUUGAGAGCAUCUUCGGAUGCAGAGGCGGCAGCCUUCGGUGGAGCGAUCGCGCCAACGUUGUCAACUAUGACACGCAAAACGCGUGCUCCGUUGAAUGGAGUUUAUCAUG [G34A C85A A91C C103G] cannot be ordered by “polymerase ribozyme fitness (log ratio)” value: ≤ -4.2 for the first, ≤ -4.2 for the second.

GGAUCUUCUCGAUCUAACAAAAAAGACAAAUCUACCACAAAGCUUGAGAGCAUCUUCGGAUGCAGAGGCGGCAGCCUUCGGUGGAGCGAUAGCGCCAACGUUCUCAACUAUGACACGCAAAACGCGUGCUCCAUUGAAUGGAGUUUAUCAUG [G34A C85A G133A] and GGAUCUUCUCGAUCUAACAAAAAAGACAAAUCUACCACAAAGCUUGAGAGCAUCUUCGGAUGCAGAGGCGGCAGCCUUCGGUGGCGAGAUAGCGCCAACGUUCUCAACUAUGACACGCAAAAUGCGUGCUCCUUUGAAUGGAGUUUAACAUG [G34A C87A C123U G133U U148A] cannot be ordered by “polymerase ribozyme fitness (log ratio)” value: ≤ -4.2 for the first, ≤ -4.2 for the second.

Compared with GGAUCUUCUCGAUCUAACAAAAAAGACAAAUCUACCACAAAGCUUGAGAGCAUCUUCGGAUGCAGAGGCGGCAGCCUUCGGUGGCGCGAUAGAGCCAACGUUCUCAACUAUGACACGCAAAACGCGUGCUCCGUUGAAUGGAGUUUAUCAUG [G34A C93A], GGAUCUUCUCGAUCUAACAAAAAAGACAAAUCUACCACAAAGCUUGAGAGCAUCUUCGGAUGCAGAGGCGGCAGCCUUCGGUGGCGCGAUAGAGCCAACGUUCUCACCUAUGACACGCAAAACGCGUGCUCCGUUGAAUGGAGUUUAUCAUG [G34A C93A A107C] is lower in “polymerase ribozyme fitness (log ratio)” value: -3.6 for the first, ≤ -4.2 for the second.

With GGAUCUUCUCGAUCUAACAAAAAAGACAAAUCUACCACAAAGCUUGAGAGCAUCUUCGGAUGCAGAGGCGGCAGCCUUCGGUGGCGCGAUAGGGCCAACGUUCUCAACUAUGACACGCAAAACGCGUGCUCCGUUGAAUGGAGUUUAUCAUG [G34A C93G] the “polymerase ribozyme fitness (log ratio)” value was ≤ -4.2.
